In all, about 310,000 compounds went through this assay and about 2,200 (0.71%) showed an effect of 50% or more. Effects have a minus sign here. The list shows a part of the results.
Molecular target: human ether-à-go-go-related gene (hERG) potassium channel (human, UniProt Q12809)
Experiment: primary screen, population patch clamp on CHO cells stably expressing hERG

Sequence of human ether-à-go-go-related gene (hERG) potassium channel (Q12809 whole entry, looked up): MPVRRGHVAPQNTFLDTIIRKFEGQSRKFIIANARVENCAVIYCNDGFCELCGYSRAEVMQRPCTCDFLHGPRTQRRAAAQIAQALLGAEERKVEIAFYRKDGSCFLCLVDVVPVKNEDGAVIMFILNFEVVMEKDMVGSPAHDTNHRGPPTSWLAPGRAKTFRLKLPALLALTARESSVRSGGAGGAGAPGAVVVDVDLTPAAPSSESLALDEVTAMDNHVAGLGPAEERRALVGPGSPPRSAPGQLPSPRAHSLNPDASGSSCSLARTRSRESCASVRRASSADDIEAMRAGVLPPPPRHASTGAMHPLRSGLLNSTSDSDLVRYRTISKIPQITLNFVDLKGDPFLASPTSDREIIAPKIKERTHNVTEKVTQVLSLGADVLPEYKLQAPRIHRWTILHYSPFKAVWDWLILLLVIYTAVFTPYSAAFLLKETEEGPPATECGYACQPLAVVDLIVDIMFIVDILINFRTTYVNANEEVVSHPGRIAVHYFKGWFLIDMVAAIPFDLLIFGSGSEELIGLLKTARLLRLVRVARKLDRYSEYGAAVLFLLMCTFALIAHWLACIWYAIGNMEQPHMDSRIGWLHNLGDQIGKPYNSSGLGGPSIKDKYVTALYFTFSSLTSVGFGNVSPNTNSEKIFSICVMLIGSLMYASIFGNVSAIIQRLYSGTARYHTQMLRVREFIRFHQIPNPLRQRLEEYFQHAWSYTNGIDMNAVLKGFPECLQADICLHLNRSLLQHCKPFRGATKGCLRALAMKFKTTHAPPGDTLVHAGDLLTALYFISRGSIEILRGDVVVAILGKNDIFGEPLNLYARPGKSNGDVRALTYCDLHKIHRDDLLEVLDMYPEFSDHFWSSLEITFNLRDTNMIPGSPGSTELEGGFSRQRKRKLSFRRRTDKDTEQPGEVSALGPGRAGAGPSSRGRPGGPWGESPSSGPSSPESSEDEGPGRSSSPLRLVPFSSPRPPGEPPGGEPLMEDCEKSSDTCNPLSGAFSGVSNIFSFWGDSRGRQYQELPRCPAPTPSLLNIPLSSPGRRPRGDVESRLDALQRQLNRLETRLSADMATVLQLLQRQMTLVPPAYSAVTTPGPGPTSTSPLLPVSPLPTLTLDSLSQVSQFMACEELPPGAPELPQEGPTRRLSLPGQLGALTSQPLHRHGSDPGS

| SMILES | hERG current change (%, negative = inhibition) at 1uM [%] |
| --- | --- |
| Cn1ccc(-c2ccccc2)n1 | 16.2 |
| CCOc1cc(C(=O)Nc2cc(C)ccc2C)ccc1OCC(=O)N1CCCCC1 | 21.9 |
| COc1ccccc1/C=C/c1onc(C)c1S(=O)(=O)N1CCC(C(=O)NC(C)C)CC1 | 3 |
| O=C(c1ccc(Cn2c(=S)[nH]c3cc4c(cc3c2=O)OCO4)cc1)N1CCN(c2ccccc2)CC1 | 8.64 |
| COc1ccc(C(=O)NC(=S)Nc2ccc(Cl)c(C(=O)O)c2)cc1 | 18 |
| CCC(C)(C(=O)NC1CCCC1)N(Cc1ccco1)C(=O)c1ccc2c(c1)OCO2 (stereo not shown) | 8.08 |
| CC(C)(C)C(C(Oc1ccc(Cl)cc1)n1cncn1)n1nnnc1C(c1cccc(Cl)c1)N1CCCCC1 (stereo not shown) | -6.02 |
| CC1(C)Cc2cccc(OCC(=O)Nc3cccnc3)c2O1 | 7.61 |
| CN(C)C(=O)N1CCN(c2nc(-c3ccccc3)cs2)CC1 | 9.75 |
| O=C(O)CCn1cnc2ccccc2c1=O | 17.6 |
| O=C(Nc1ccccn1)C1CCN(S(=O)(=O)c2cccs2)CC1 | 7.56 |
| COc1ccc(Cl)cc1S(=O)(=O)N1CCCC(C(=O)NCc2ccccn2)C1 (stereo not shown) | 5.14 |
| CCOC(=O)c1sc(-c2ccccn2)nc1C | 3.11 |
| O=C(O)/C=C/C(=O)Nc1ccc(Oc2ncnc3cc(Cl)ccc23)nc1 | 15.9 |
| Fc1ccc(OCCOCCN2CCCC2)cc1 | 2.38 |
| CC1CCCCN1C(=O)CSc1nc2ccccc2n1CC(=O)N1CCc2ccccc21 (stereo not shown) | -6.67 |
| CCn1c(NCc2cc(Br)ccc2NS(=O)(=O)c2ccc(C)cc2)nc2ccccc21 | 11.1 |
| CCOC(=O)c1c(C)[nH]c(C(=O)Cn2nnc(-c3ccccc3Cl)n2)c1C | 10.5 |
| C/C(CC(=O)Nc1cc(C)ccn1)=N\NC(=O)C(=O)NC(C)C | 13.1 |
| CCCCc1ccc(NC(=S)Nc2cccnc2)cc1 | 14.7 |
| c1ccc(Cn2nnc(-c3ccccc3)n2)cc1 | -9.62 |
| CC(Nc1ccccc1N1CCCCC1)C(=O)N1CCc2ccccc21 (stereo not shown) | 1.66 |
| COc1ccc2sc(N(CCCN(C)C)C(=O)c3ccc(S(=O)(=O)N4CCCc5ccccc54)cc3)nc2c1.Cl | 10.3 |
| Cc1cc(C(=O)OCC(=O)NC(C)C)c2ccccc2n1 | 3.18 |
| Cc1ccc(C(=O)N/C(=C\c2cn(C)c3ccccc23)C(=O)NCCCN2CCOCC2)cc1 | 8.31 |
| CCCNC(=O)C(Cc1ccc(OC)cc1)NC(=O)c1ccc(Cl)cc1 (stereo not shown) | 9.62 |
| CCOC(=O)c1c(C)n(C)c2ccc(OC)c(NC(=O)CCN3CCC(Cc4ccccc4)CC3)c12 | -5.72 |
| CCn1c(SCC(=O)NC(=O)NC(C)(C)C)nc2ccccc21 | 17.1 |

| SMILES | hERG current change (%, negative = inhibition) at 1uM [%] |
| --- | --- |
| O=C(Nc1ccc(Cl)cc1)Nc1ccc(N2CCOCC2)cc1 | 14.1 |
| CC(=O)c1c(C)[nH]c(C(=O)Nc2ccccc2N2CCOCC2)c1C | 1.92 |
| O=C(COc1ccc(S(=O)(=O)N2CCCCC2)cc1)NCc1cccnc1 | 3.12 |
| Cc1cc(C)c(NC(=O)c2ccccc2N(C)S(C)(=O)=O)c(C)c1 | 8.21 |
| N#CCC(=N)N1CCN(c2cccc(Cl)c2)CC1 | -2.69 |
| COc1cc(O)cc2c1C(=O)OC(C)CCCC(=O)CCC/C=C\2 (stereo not shown) | 13.6 |
| CC1CC(NC(=O)C2C3CCC(O3)C2C(=O)O)CC(C)(C)C1 (stereo not shown) | 7.28 |
| COc1ccc(/C=C2\SC(=S)N(CCC(=O)NC3C=CS(=O)(=O)C3)C2=O)cc1 (stereo not shown) | -4.5 |
| CN(CC(=O)Nc1ccccc1Br)C(=O)C(Cc1ccccc1)NC(=O)c1ccccc1 (stereo not shown) | 8.52 |
| CC(=O)Nc1ccc(N/C=C(\C#N)S(=O)(=O)c2ccc(Cl)cc2)cc1 | 11.1 |
| COc1cc(CN2CCN(S(=O)(=O)c3ccc(NC(C)=O)cc3)CC2)cc(OC)c1O.O=C(O)C(=O)O | 6.99 |
| CCOC(=O)c1c(NC(=O)COc2ccccc2)sc2c1CC(C)(C)NC2(C)C | 10.8 |
| Cc1cccc(NC(=O)COC(=O)c2cc(C)n(C3CC3)c2C)c1 | 8.99 |
| CS(=O)(=O)c1cnc(-c2cccnc2)nc1N | 6.79 |
| O=Cc1ccccc1Oc1ccccc1 | 10.7 |
| CCc1ccc(NC(=O)C(CC)Sc2nc3cc4c(cc3c(=O)n2Cc2ccco2)OCO4)cc1 (stereo not shown) | 8.57 |
| COc1ccccc1N1CCN(C(=O)c2cc(-c3ccc(Br)cc3)on2)CC1 | 20 |
| COc1ccc(C(=O)NC(=S)Nc2cc(C)ccn2)cc1[N+](=O)[O-] | 17.3 |
| COCCNC(=O)C(c1ccc(F)cc1)N(Cc1cccs1)C(=O)CCC(=O)Nc1ccccn1 (stereo not shown) | 16.6 |
| NNC(=S)Nc1ccc(Cl)cc1 | 7.28 |
| CC(C)(C)NC(=S)NC(=O)C12CCC3CC(CC(C3)C1)C2 | 1.94 |
| Cn1c(SC(C(=O)Nc2ccc(F)cc2)c2ccccc2)nc2ccccc21 (stereo not shown) | 10.2 |
| CCCOc1ccc(/C=C/c2c([N+](=O)[O-])c(=O)n(C)c(=O)n2C)cc1 | 15.3 |
| Cc1ccc(S(=O)(=O)/C(C#N)=C/c2c(N3CCOCC3)nc3c(C)cccn3c2=O)cc1 | -21.2 |
| COc1ccc(Cn2nnnc2C(c2cccs2)N2CCN(c3ccccc3)CC2)cc1 (stereo not shown) | 9 |
| COCCN(C(=O)CCC(=O)Nc1cc(C)on1)C(C(=O)NC(C)(C)C)c1cccc(OC)c1OC (stereo not shown) | 8.83 |
| COC(=O)c1ccc(C(=O)OC)c(NC(=O)CS(=O)(=O)Cc2ccccc2)c1 | -7.98 |

Source: PMC4336329 (PLoS ONE, 2015)
